# Measured values: PubChem BioAssay AID1508623 (National Center for Advancing Translational Sciences (NCATS), 2021)
# The campaign covered roughly 48,000 compounds. About 450 (0.94%) were called active. Not shown: some 19% with an inconclusive outcome. Calls come from the whole dose curve; as a rule, active = well fitted inhibition curve with a large enough effect; inconclusive = small, poorly fitted or top-dose-only effect; inactive = no such curve, though single readings can be large or run the other way. The list shows a part of the results.
# Assay: Primary qHTS for Identification of Small Molecule Inhibitors of Huntingtin Promoter Activity; note: nearly all actives have a fitted effect of over 50% in size
# Conditions: HEK293 HTT promoter firefly luciferase reporter (activity 0% = vehicle and -100% = no light), 24 h; series mostly up to 57.5 µM; activity change, negative = inhibition: at the top concentration
# How it was run: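 Firefly luciferase signal from promoter-reporter HEK293 cells was scaled between vehicle (0%) and zero RLU (-100%). Compounds were tested at final concentrations of up to 57.5 uM over 24 h at 37 degrees C. PTC124 at 50 uM final served as control inhibitor.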
row,SMILES,"activity change, negative = inhibition"
1,COc1ccc(N2CC(NC(=O)C3CCCCC3)CC2=O)cc1 (stereo not drawn),inactive: -18.4%
2,CCn1c(SCC(=O)Nc2cc(C)ccc2F)nnc1-c1ccccc1O,inactive: -11.2%
3,Clc1ccc(C(Cn2ccnc2)OCc2c(Cl)cccc2Cl)c(Cl)c1 (stereo not drawn),inactive: -17.3%
4,CCOC(=O)CNC(=O)N1CCN(S(=O)(=O)c2ccc3c(ccn3C)c2)CC1,inactive: -8.18%
5,COc1ccc(CC(=O)N2CC(=O)Nc3ccc(F)cc3C2c2ccccc2)cc1 (stereo not drawn),inactive: -22%
6,Cc1ccccc1CNC(=O)Cn1c(=O)c2cccn2c2cccnc21,inactive: 0.865%
7,CCCOc1ccc(C2c3c(oc4ccccc4c3=O)C(=O)N2c2nnc(C(C)C)s2)cc1 (stereo not drawn),inactive: -14.9% [at 11.5 µM]
8,CCc1ccc(CNC(=O)C2CCN(c3nn4cc(-c5ccc(OC)cc5)nc4s3)CC2)cc1,inactive: 4.33%
9,COc1ccc(C2=NC(c3ccccc3)=Nc3ccc(C)cc3N2)cc1,inactive: -13.8%
10,COC(=O)c1ccccc1NC(=O)c1ccc(CN2CC(=O)N3CCCCC3C2=O)cc1 (stereo not drawn),inactive: -22.9%
11,CN1CCN(C(=O)c2ccc3c(c2)N(Cc2ccc(F)cc2)C(=O)c2ccccc2S3(=O)=O)CC1,inactive: -10.9%
12,COc1ccc(NC(=O)CSc2nnc(-c3ccncc3)n2-c2ccccc2)cc1,inactive: -18.9%
13,CCC(C)NC(=O)c1c2c(nc3ccccc13)C(=O)N(C1CCCCC1)C2 (stereo not drawn),inactive: -8.29%
14,CCOC(=O)c1cc(S(=O)(=O)Nc2ccccc2)[nH]n1,inactive: -0.896%
15,CCOC(=O)N[C@H](Cc1c[nH]c2ccccc12)C(=O)Nc1cccc(Cl)c1,inactive: -26.7%
16,CCc1ccc(C2CC(=O)Nc3c2c(=O)n(C)c2ncnn32)cc1 (stereo not drawn),inactive: -2.59%
17,COc1ccc(C(=O)c2cn(CC(=O)Nc3cc(C)ccc3C)c3nc(C)ccc3c2=O)cc1,inactive: 9.87%
18,CC(C)Oc1ccc(CNC(=O)C2=Cc3ccccc3OC2)cc1,inactive: 7.94%
19,NC(=O)C1CCN(c2csc3ccc(F)cc3c2=O)CC1,inactive: -0.675%
20,CCn1c(CN2CCN(C)CC2)nc2cc(NC(=O)c3ccc([N+](=O)[O-])cc3)ccc21,inactive: -1.06%
21,COc1ccc(N2CCN(C(CNC(=O)c3ccc(OC)c(OC)c3)c3cccnc3)CC2)cc1 (stereo not drawn),inactive: -14.3%

row,SMILES,"activity change, negative = inhibition"
1,Cc1ccc(-c2nc(CSc3nnc(C)n4c3cc3occc34)c(C)o2)cc1,inactive: 0.811%
2,CCCCSc1nnc2c(n1)OC(c1ccc(Br)s1)Nc1ccccc1-2 (stereo not drawn),inactive: 19.8%
3,CCCCOC(=O)c1ccc(-n2nnc3c(sc4nc(C)cc(C)c43)c2=O)cc1,inactive: 15.8%
4,CN(C)c1ccc(CNC(=O)CCCN2C(=O)c3cccnc3Oc3ccc(Cl)cc32)cc1,inactive: -1.85%
5,COc1ccc(CNC(=O)c2c(O)nc3c(C)cccn3c2=O)cc1,inactive: -16.5%
6,O=S(=O)(NCCc1nnc2ccc(SCc3ccccc3Cl)nn12)c1ccccc1,inactive: -20.3%
7,COc1ccc2cc1Oc1cc3c(cc1OC)CC[N+](C)(C)[C@H]3Cc1ccc(cc1)Oc1c(OC)c(OC)cc3c1[C@@H](C2)[N+](C)(C)CC3,inactive: 9.66%
8,Cc1cc(N2CCC(C)CC2)nc2ccc(NC(=O)Cc3ccccc3Br)cc12,inactive: -19.5%
9,COc1cc2nc(Nc3cccc(F)c3)nc(N)c2cc1OC,inactive: -15.3%
10,CCOc1ccc(-c2nc(-c3ccccc3)c(-c3ccccc3)[nH]2)cc1OCC,inactive: -27.5%
11,O=C(NCc1ccccc1Cl)c1nnc(Cc2cccc(F)c2)o1,inactive: -18.6%
12,Cc1ccc2c(CC(=O)N(Cc3ccc(N(C)C)cc3)Cc3ccco3)coc2c1C,inactive: -29.3%
13,Cc1ccc2oc(-c3ccc(C)c(NC(=O)/C=C/c4ccco4)c3)nc2c1,inactive: -24.2%
14,N#Cc1ccccc1CSc1nnc(-c2ccc(Br)cc2)o1,inactive: 25.6%
15,Cc1ccc(CNC(=O)Cn2ccn(-c3cccc(Cl)c3)c(=O)c2=O)cc1,inactive: -8.44%
16,COc1cccc(-c2cc(C(F)(F)F)n3ncc(C(=O)OC(C)C)c3n2)c1,inactive: -7.32%
17,Cc1ccc(-c2noc(CNC(=O)c3ccc(C)c(Cl)c3)n2)cc1,inactive: 3.25%
18,NC(=O)N1c2ccccc2C=Cc2ccccc21,inactive: 3.39%
19,C[C@]12CC[C@@H]3c4ccc(O)cc4CC[C@H]3[C@H]1C[C@@H](O)[C@H]2O,inactive: -30.4%
20,CCN(CC)C(=O)C1=C(C)Nc2nc3ccccc3n2C1c1cccc(OC)c1 (stereo not drawn),inactive: -10.3%
21,CN(C(=O)CCc1nc(-c2ccccc2F)no1)c1ccc(Cl)cc1,inactive: -25.1%

row,SMILES,"activity change, negative = inhibition"
1,O=S(=O)(c1ccc(OC(F)(F)F)cc1)N1CCC(c2nnnn2-c2ccc(F)cc2)CC1,inactive: -9.5%
2,Cc1ccc(NC(=O)c2nc(S(C)(=O)=O)ncc2N(Cc2ccc(C(C)(C)C)cc2)Cc2ccco2)cc1C,inactive: -20.2%
3,COc1cc(C(=O)NCC(c2ccc3c(c2)OCO3)N2CCOCC2)cc(OC)c1OC (stereo not drawn),inactive: 0.339%
4,CCn1cc(C(=O)OCC(=O)Nc2ccc(C)c(Cl)c2)c(=O)c2ccc(C)nc21,inactive: -9.02%
5,CCN1CCSc2ccc(C(=O)NCc3ccc(OC(C)C)cc3)cc21,inactive: -21.4%
6,COc1ccc(-c2noc(CSCC(=O)Nc3cc(OC)c(OC)c(OC)c3)n2)cc1OC,inactive: 1.88%
7,CCOc1ccc(-c2cc3c(=O)n(CC(=O)NCc4ccc(C)cc4)ccn3n2)cc1,inactive: -3.74%
8,COc1ccc(N(Cc2cc3ccccc3[nH]c2=O)C(=O)c2cccc(Cl)c2)cc1,inactive: -21.9%
9,CCn1ccc(NS(=O)(=O)c2ccc(N)cc2)nc1=O,inactive: 3.42%
10,CCOC(=O)Cc1ccc(NC(=O)NCc2c(-n3cccc3)sc3c2CCCC3)cc1,inactive: 24.2%
11,CC(=O)N1c2ccccc2CC1C(=O)N1CCN(c2ccccc2)CC1 (stereo not drawn),inactive: -0.0078%
12,O=C(CS(=O)(=O)c1cccc2nsnc12)Nc1ccccc1Cl,inactive: -3.91%
13,O=C(/C=C/c1ccccc1)Nc1cc(-c2nc3cc(Cl)ccc3o2)ccc1Cl,inactive: 38.7%
14,Cc1cccc(OCC(=O)Nc2cccc(OCc3cc(=O)n4cccc(C)c4n3)c2)c1,inactive: 11.4%
15,Cc1cc2nc(-c3cccc(NC(=O)c4cccc5ccccc45)c3)oc2cc1C,inactive: 6.43%
16,CCOc1ccc(N2CC(NC(=O)c3ccco3)CC2=O)cc1 (stereo not drawn),inactive: 6.17%
17,Cc1cc(C)c(NC(=O)Cn2c(=O)c3cccn3c3ccccc32)c(C)c1,inactive: -3.87%
18,CCCCNC(=O)c1ccc2c(c1)N(Cc1ccc(F)cc1)C(=O)c1ccccc1S2=O (stereo not drawn),inactive: -27.2%
19,CCSc1ncc(Cl)c(C(=O)N2CCN(c3ccccc3OC)CC2)n1,inactive: -45.4%
20,Cc1cccc(C(=O)OCc2cc(=O)n3ccsc3n2)c1,inactive: 7.62%
21,COc1ccc(Cn2ccc3nc(C)c(C(=O)Nc4ccc(OC)cc4)cc3c2=O)cc1,inactive: -28.8%
